Among the data in the RNAGym collection of RNA variant scans (doi:10.7554/elife.90254) are self-cleavage values, retold here.

B1: LINE1-mini (parent)
chain: GGCAGAGCUCAACACAGCGUGGCAAAGUGGCUGUGGCUAGACUGCC

Read counts are not given, so values of variants with three or more changes are uncertain.

This data set covers variants of B1. In words: self-cleavage, relative activity (ratio to wild type); higher = more cleavage; in vitro, sequencing; the parent is a self-cleaving ribozyme.
With GGCAUAGCUCAACACAGCGUGGCAAAGUGCCUGUGGCUAGACUUCC, the self-cleavage was found to be 0.01.
GGCAUAGCUCAACACAGCGUGUCAAAGUGGGUGUGGCUAGACUGCC: the self-cleavage was 0.01.
As to GGCAUAGCUCAACACACCGUGGCAAAGUGGAUGUGGCUAGACUGCC, the self-cleavage is 0.03.
The same measure for GGCAUAGCUCAACACACCGUGGCAAAGUGGGUGUGGCUAGACUGCC: 0.04; for GGCAUAGCUCAACACAGCAUGGCAAAGUGGCUGUGGCUGAACUGCC: 0.01; for GGCAUAGCUCAACACAGCGUGCCAAUGUGGCUGUGGCUAGACUCCC: 0.01.
As to GGCAUAGCUCAACACAGCGUGCCAAAGUGGCUGUGGAUAGCCUGCC, the self-cleavage was 0.02.
The same measure for GGCAUAGCUCAACACAGCGUAGCAAAGUGUCUGUGGAUAGAGUGCC: 0.05; for GGCAUAGCUCAACACAGCGUGGUAAAGUGGCUGUGGCUAGCCUUCA: 0.05; for GGCAUAGCUCAACACAGCGUGACAAUGUGGCUGUGGCUAGACUACC: 0.01.
With GGCAUAGCUCAACACAGCGUGGCAAAGUGACUGUGGUUAGACUGCC, the self-cleavage was 0.04.
GGCAUAGCUCAACACAGCAUGGCAAAGUGGCUGUGGCUAGCCUGCC: the self-cleavage came to 0.01.
The same measure for GGCAUAACUUAACACAGCGUGUCAAAGUGGCUGUGGCUAGACUGCC: 0.55.
In the case of GGCAUAGCUCAACACAGCGUGGGAAAGUGGCUGUGGCUAGACUGGC, the self-cleavage worked out at 0.05.
Take GGCAUACCUCAACACAGCGUGGCAAAGUGGCUGUUGACGGACUGCC: the self-cleavage was determined as 0.01.
Consider GGCAUAGCUCAACACAGCGUAGCAACGUGGCUGUGGCUAGACUGCC, for which the self-cleavage was determined as 0.07.
Regarding GGCAUAUCUCAACACAGCGUGACAAAGUGGCUGUGGCUAGAAUGCC, the self-cleavage came to 0.04.
For the variant GGCAUAUGUCAACACAGCGUGGCAAAGUGGCUGUGGCUAGACUGCC, the self-cleavage amounted to 0.36.
On to GGCAUAGCUCAACACAGCGUGGCAAAGUGGGUGUUGCGACACUUCC, for which the self-cleavage turned out to be 0.02.
The result for GGCAUAGCUCAACACAGCGUGGCAAAGUUGCUCUGGCUAGACUGCC reads 0.02; that for GGCAUAGCUCAACACAGCGUUGCACCGUGGCUGUGGCUAGACUGCC, 0.07.
Regarding GGCAUAGCUCAACACAGCGUGGUAAAGUUGCUGUGGGUAGCCUGCC, the self-cleavage amounted to 0.01.
As for GGCAUAGCUCAACACAGCGUGGCAAAAUGGCUGUGGCGAGACUGCC, the self-cleavage worked out at 0.01.
For the variant GGCAUAGCUCAACACAGCGUGGCAAAGUAGCUGUGGCUAGCCUGCC, the self-cleavage was found to be 0.13.
On to GGCAUAGCUCAACACAGCGUGGCAAAGUUGCUGUGGGUAGAGUUCC, for which the self-cleavage came to 0.02.
The same measure for GGCAUAGCUCAACACAGCCUGGCGAAGUGGCUGUGGCUAGACUUCC: 0.09; for GGCAUAGCUCAACACAGCGUGGCAAAAUGUCAGUGGCUAGACUCCC: 0.03.
GGCAUACCUCAACACAGAGUGGGAAAGAGGCUGAGGCUAGAAUGGC: the self-cleavage is 0.01.
Regarding GGCAUAGCUCAACACAGCCUGGCAAAGUGGCUGUGGCUUGACUGCC, the self-cleavage amounted to 0.03.
The same measure for GGCAUAUCUCAACACAGCGUUGCAAAGUGGCUGUGGCUAGACUGCC: 0.06.
In the case of GGCAUAGCUCAACACAGCGUAGCAAAGUGGAUGUGGCUAGAUUGCC, the self-cleavage stood at 0.02.
On to GGCAUAGCUCAACACAGCGUGGCAAAGUGUCUUUGGCUAGACUGCA, for which the self-cleavage came to 0.08.
With GGCAUAGCUCAACACAGCGUGGCAAAGUCGCAGUCGCUAGACUGCC, the self-cleavage worked out at 0.02.
As for GGCAUAGCUCAACACAGCGUCGCAAAGUGGCUGUGGUUAGACUGCC, the self-cleavage was 0.02.
The result for GGCAUAGCUCAACACAGCGUGGUAAAGUGGCUGUGGCUAGACUGUC reads 0.09; that for GGCAUAGCUCAACACAGCGUGGCAAAGUGGUUGUGGCUAUACUGCC, 0.02.
The result for GGCAUAGCUCAACACAGCGUGGAAAAGAGGCUGUGGCUAGACUGCC reads 0.05; that for GGCAUAGCUCAACACAGCGUAGCAAAGUAGCUGUGGCUAGACUGCC, 0.47; that for GGCAUAGCUCAACACAGCGUGGGAAAGUGGCUGUGGCUAUAUUGCC, 0.05.
On to GGCAUAGCUCAACACAGCGUGUCAUAGUGGCUGUAGCUAGACUGUC, for which the self-cleavage is 0.04.
Consider GGCAUAUCUCGACACAGCGUGUCAAAGUGGCUGUGGCUAGACUGAC, for which the self-cleavage came to 0.01.
GGCAUAGCUCAACACAGCGUGGCAAAGUCGCUGUGGCCAGACUGCC: the self-cleavage is 0.02.
For GGCAUAGCUCAACACAGCCUUGCAAAGUGGCUGUGGCUAGACUGCC, the self-cleavage turned out to be 0.02.
The result for GGCAUAGCUCAACACAGCGUGGCAAAGUGGCUGUGGUUAGAAUGCC reads 0.03; that for GGCAUAUCUCAACACAGGGUGGCAAAGUGGCUGUGGCUAGACUGCC, 0.03.
With GGCAUAGCUCAACACAUCGUGGCAAAGUGGCAGUGGCUAGACUGCC, the self-cleavage turned out to be 0.05.
Take GGCAUAGCUCAACACAGCGUGGCAAAGUGUAUGUGGGUAGACUGCC: the self-cleavage came out at 0.01.
With GGCAUAACUCAACAUAGCGUGGCAAAGUGGCUGUGGCUAGACUGCC, the self-cleavage was 0.11.
In the case of GGCAUAGCUCAACACAGCGUGGCAAAGUUCCUGUGGCUAGACUGCC, the self-cleavage is 0.15.
Take GGCAUAGCUCAACACAGCUUGGCAAAGGGGCUGUGGCUAGACUGCC: the self-cleavage came out at 0.03.
Take GGCAUAGCUCAACACAGCAUGGCAAACUGGCUGUGGCUAGACUGAC: the self-cleavage worked out at 0.03.
As for GGCAUAACUCAAAACAGCGUAGCAAACUGGCUGUGGCUAGACUGCC, the self-cleavage came out at 0.9.
With GGCAUAGCUCAACACAGCGUGGCAAAGUGGAGGUGGCUAGACUGCC, the self-cleavage came to 0.05.
Take GGCAUAGCUCAACACAGCGUAGAAAAGUGGCUGUGGCUAGACUGCA: the self-cleavage is 0.19.
In the case of GGCAUAGCUCAACACAGCGUGCCAAAGCGGCUGUGGCUAGAUUGCG, the self-cleavage stood at 0.01.
Consider GGCAUAGCUCAACACAACGUGGCAAAAUGGCUGUGGCUAGACUGCC, for which the self-cleavage worked out at 0.05.
